Results are given in words; binding and its absence hold for the method and conditions named. Binding seen in cells or lysates may run through a third protein. Where a sequence is shown, tags or fusion partners need not be part of it.
Assays:
Experiment in all cases: split reporter; BiFC (split YFP, 2in1 vectors with RFP infiltration control) in transiently transformed N. benthamiana leaves, confocal microscopy; full-length ETR1 constructs under an inducible promoter, ERS1 and ETR1^1–157 constructs constitutive (d35S)
[1] = target: T1, ANTIOXIDANT-1 (ATX1), BiFC fusion (A. thaliana) (UniProt Q94BT9)
T1 sequence: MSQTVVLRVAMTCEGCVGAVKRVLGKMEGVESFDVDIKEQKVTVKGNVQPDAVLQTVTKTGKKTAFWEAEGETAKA

[2] = target: T2, COPPER TRANSPORT PROTEIN (CCH), BiFC fusion (A. thaliana) (UniProt O82089)
T2 sequence: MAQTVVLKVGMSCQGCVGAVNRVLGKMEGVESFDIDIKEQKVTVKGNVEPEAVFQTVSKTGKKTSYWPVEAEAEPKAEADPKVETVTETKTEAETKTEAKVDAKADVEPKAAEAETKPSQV

[3] = target: T3, ETR1^1–157, BiFC fusion (A. thaliana) (UniProt P49333)
T3 sequence: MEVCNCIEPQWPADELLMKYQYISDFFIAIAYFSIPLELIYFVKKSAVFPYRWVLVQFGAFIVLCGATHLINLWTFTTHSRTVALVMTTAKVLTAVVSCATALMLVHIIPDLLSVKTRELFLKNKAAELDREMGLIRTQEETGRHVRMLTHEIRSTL

[4] = target: T4, RESPONSIVE-TO-ANTAGONIST-1 (RAN1), full-length, BiFC fusion (A. thaliana) (UniProt Q9S7J8)
T4 sequence: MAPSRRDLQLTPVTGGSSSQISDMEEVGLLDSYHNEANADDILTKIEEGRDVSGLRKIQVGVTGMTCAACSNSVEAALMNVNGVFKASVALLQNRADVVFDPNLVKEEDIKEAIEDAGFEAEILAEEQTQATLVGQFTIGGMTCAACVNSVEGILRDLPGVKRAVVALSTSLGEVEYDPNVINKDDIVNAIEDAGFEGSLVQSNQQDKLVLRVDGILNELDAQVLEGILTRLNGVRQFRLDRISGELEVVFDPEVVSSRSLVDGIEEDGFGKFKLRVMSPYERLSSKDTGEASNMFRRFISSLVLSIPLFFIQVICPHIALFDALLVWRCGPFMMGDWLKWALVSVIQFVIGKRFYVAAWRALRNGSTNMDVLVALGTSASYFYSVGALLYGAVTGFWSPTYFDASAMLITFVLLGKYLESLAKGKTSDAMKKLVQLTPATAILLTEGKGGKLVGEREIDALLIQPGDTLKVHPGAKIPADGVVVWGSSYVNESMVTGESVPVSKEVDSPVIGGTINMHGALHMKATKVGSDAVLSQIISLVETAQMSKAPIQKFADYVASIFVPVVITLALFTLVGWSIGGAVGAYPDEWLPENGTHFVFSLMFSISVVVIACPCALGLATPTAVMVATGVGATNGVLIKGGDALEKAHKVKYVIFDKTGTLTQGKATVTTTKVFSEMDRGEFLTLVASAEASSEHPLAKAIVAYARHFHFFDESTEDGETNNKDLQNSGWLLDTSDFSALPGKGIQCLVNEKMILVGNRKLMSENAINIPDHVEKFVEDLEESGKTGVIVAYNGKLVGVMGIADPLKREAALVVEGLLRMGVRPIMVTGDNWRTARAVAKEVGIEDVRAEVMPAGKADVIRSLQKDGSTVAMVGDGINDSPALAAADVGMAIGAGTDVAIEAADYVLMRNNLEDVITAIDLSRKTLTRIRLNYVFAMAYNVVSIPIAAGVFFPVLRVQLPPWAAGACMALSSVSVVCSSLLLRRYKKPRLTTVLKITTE

[5] = target: T5, ethylene receptor ERS1, BiFC fusion (UniProt Q38846)
T5 sequence: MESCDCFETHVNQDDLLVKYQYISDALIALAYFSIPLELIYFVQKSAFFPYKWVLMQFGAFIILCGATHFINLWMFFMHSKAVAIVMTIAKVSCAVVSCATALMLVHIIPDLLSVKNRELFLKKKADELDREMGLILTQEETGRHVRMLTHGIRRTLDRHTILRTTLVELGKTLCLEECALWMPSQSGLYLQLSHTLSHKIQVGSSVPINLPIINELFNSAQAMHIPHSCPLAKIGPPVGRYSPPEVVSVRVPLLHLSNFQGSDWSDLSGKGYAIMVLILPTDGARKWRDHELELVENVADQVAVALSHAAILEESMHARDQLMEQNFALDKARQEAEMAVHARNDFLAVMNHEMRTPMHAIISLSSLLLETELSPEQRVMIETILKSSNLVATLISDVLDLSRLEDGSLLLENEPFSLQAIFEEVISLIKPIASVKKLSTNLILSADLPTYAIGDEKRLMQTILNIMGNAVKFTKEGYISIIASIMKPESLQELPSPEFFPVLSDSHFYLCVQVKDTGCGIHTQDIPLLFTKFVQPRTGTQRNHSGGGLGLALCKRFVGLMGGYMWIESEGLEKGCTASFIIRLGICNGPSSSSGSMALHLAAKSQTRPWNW

[6] = target: T6, ethylene receptor ETR1, full-length, BiFC fusion (A. thaliana) (UniProt P49333)
T6 sequence: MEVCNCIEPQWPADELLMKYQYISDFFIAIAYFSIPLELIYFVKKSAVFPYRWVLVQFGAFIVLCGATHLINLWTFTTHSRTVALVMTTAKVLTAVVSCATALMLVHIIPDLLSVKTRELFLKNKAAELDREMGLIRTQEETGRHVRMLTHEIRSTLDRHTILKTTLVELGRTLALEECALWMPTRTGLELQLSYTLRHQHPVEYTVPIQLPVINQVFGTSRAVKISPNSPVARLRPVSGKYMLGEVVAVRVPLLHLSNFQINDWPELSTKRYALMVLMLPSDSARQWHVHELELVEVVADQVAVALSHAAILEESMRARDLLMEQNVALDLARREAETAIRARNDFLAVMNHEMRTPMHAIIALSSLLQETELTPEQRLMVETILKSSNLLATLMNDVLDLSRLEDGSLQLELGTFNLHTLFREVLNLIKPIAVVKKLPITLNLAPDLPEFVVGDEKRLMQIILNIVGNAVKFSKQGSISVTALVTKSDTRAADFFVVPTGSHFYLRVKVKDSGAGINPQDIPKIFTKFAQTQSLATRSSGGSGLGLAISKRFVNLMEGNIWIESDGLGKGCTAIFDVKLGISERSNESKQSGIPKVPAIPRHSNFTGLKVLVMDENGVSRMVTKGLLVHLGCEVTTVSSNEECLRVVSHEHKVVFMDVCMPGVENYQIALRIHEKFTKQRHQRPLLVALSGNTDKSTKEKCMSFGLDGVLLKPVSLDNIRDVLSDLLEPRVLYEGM

Measured: binding

B1: Receptor-like protein CLAVATA2 (CLV2), BiFC negative control (protein, UniProt O80809 26-720)
chain: QLPDLDPQDKASLLIFRVSIHDLNRSLSTWYGSSCSNWTGLACQNPTGKVLSLTLSGLNLSSQIHPSLCKLSSLQSLDLSHNNFSGNIPSCFGSLRNLRTLNLSRNRFVGSIPATFVSLKELREVVLSENRDLGGVVPHWFGNFSMNLERVDFSFCSFVGELPESLLYLKSLKYLNLESNNMTGTLRDFQQPLVVLNLASNQFSGTLPCFYASRPSLSILNIAENSLVGGLPSCLGSLKELSHLNLSFNGFNYEISPRLMFSEKLVMLDLSHNGFSGRLPSRISETTEKLGLVLLDLSHNSFSGDIPLRITELKSLQALRLSHNLLTGDIPARIGNLTYLQVIDLSHNALTGSIPLNIVGCFQLLALMISNNNLSGEIQPELDALDSLKILDISNNHISGEIPLTLAGLKSLEIVDISSNNLSGNLNEAITKWSNLKYLSLARNKFSGTLPSWLFKFDKIQMIDYSSNRFSWFIPDDNLNSTRFKDFQTGGGEGFAEPPGKVEIKISAAVVAKDELSFSYNLLSMVGIDLSDNLLHGEIPEALFRQKNIEYLNLSYNFLEGQLPRLEKLPRLKALDLSHNSLSGQVIGNISAPPGLTLLNLSHNCFSGIITEKEGLGKFPGALAGNPELCVETPGSKCDPANIDASQEEIYQNELVEGPISIWIFCLSAFISFDFGVLGIFCSARARSYILQTKA
no binding: all assays above
